Experimental data from patent CN116284426A (SUNSHINE GUOJIAN PHARMACEUTICAL SHANGHAI CO LTD, dated 2023).

Key:
[1] = biological target: T1, GUCY2C-Fc蛋白 (human GUCY2C extracellular region fused to human IgG1 Fc) (human, UniProt P25092 fragment); test: ELISA, GUCY2C-Fc coated, anti-human IgG Fab HRP (Table 12)
T1 construct: extracellular domain; Made in HEK-293F with an unspecified N-terminal signal peptide; also called 人GUCY2C-Fc蛋白; not shown: human IgG1 Fc at the C-terminus in place of the 6xHis tag

[2] = biological target: T2, GUCY2C-His蛋白 (human GUCY2C extracellular region with C-terminal 6xHis) (human, UniProt P25092 fragment); test: ELISA, GUCY2C-His coated, anti-human IgG Fab HRP (Table 10)
T2 construct: extracellular domain; Made in HEK-293F with an unspecified N-terminal signal peptide; also called 人GUCY2C-His蛋白

[3] = biological target: T1, GUCY2C-Fc蛋白 (human GUCY2C extracellular …); test: ELISA, GUCY2C-Fc coated, anti-human IgG Fab HRP (Table 11)
[4] = biological target: T2, GUCY2C-His蛋白 (human GUCY2C …); test: ELISA, GUCY2C-His coated, anti-human IgG Fab HRP (Table 9)
[5] = biological target: GUCY2C on tumour cells (CW2, CW2-GCC#1, T84) (human, UniProt P25092 24-1073); test: cell-based or functional assay
CD3ε-ECD-his = biological target: T3, CD3ε-ECD-his (UniProt P07766 23-126); test: ELISA, CD3ε-ECD-his coated at 1 ug/mL, anti-human IgG Fab HRP (Table 14)
T3 construct: extracellular domain; also called CD3ε蛋白

CD3ε-ECD-his, sequence (P07766 other isoform, or with tags, fused parts or gaps): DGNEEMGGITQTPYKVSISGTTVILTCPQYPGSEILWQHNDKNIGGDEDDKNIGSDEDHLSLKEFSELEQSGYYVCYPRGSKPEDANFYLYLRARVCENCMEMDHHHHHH

B1: 10D7CH1-SP4VHL (bispecific antibody)
heavy: QVQLVESGGGVVQPGRSLRLSCAVSGFTFSNYGVHWVRQAPGKGLEWLGVIWSGGRKDYNAAFISRLTISKDNSKSTVYLQMNSLRAEDTAVYYCARHGTYPYWYFALWGQGTLVTVSSASTKGPSVFPLAPSSKSTSGGTAALGCLVKDYFPEPVTVSWNSGALTSGVHTFPAVLQSSGLYSLSSVVTVPSSSLGTQTYICNVNHKPSNTKVDKKVEPKSCGGGGSGGGGSGGGGSEVQLVESGGGLVQPGGSLRLSCAASGFTFNTYAMNWVRQAPGKGLEWVARIRSKYNNYATYYADSVKDRFTISRDDSKNTLYLQMNSLRAEDTAVYYCVRHGNFGNSYVSWFAYWGQGTLVTVSSGGGGSGGGGSGGGGSGGGGSQAVVTQEPSLTVSPGGTVTLTCRSSTGAVTTSNYANWVQQKPGQAPRGLIGGTNKRAPGVPARFSGSLLGGKAALTLSGAQPEDEAEYYCALWYSNLWVFGQGTKVEIKGGGS[letters of human IgG1 Fc left out]
light: DIQMTQSPSSLSASVGDRVTITCRASQDISNYLNWYQQKPGKTFKLLVYYTSRLQSGVPSRFSGSGSGTDYTFTISSLQPEDIATYFCQQGKTLPFSFGQGTKVEIKRTVAAPSVFIFPPSDEQLKSGTASVVCLLNNFYPREAKVQWKVDNALQSGNSQESVTEQDSKDSTYSLSSTLTLSKADYEKHKVYACEVTHQGLSSPVTKSFNRGEC
notes: also called 结构7
EC50 [1]: 0.43 nM | EC50 [2]: 1.18 nM | EC50 [3]: 0.29 nM | EC50 [4]: 1.23 nM | IC50 of T-cell-mediated killing of CW2 cells (CTG, E:T 5:1, 96 h) [5]: 0.02 nM | EC50 (CD3ε-ECD-his): 0.35 nM
